Data published in PubChem BioAssay AID651820 (National Center for Advancing Translational Sciences (NCATS), 2012).
Among all 340,000 compounds or so, about 12,000 (3.5%) were called active. Inconclusive results, whose numbers are uncertain, are shown with a selection of clear calls. Calls come from the whole dose curve; as a rule, active = well fitted inhibition curve with a large enough effect; inconclusive = small, poorly fitted or top-dose-only effect, or another doubt; inactive = no such curve, though single readings can be large or run the other way. Potencies of inconclusive entries are left out as doubtful fits.

experiment: qHTS Assay for Inhibitors of Hepatitis C Virus (HCV); conditions: Huh7.5.1 HCVcc-Cre (HCVcc is cell-culture hepatitis C virus) infection, luciferase reporter, 44 h; series mostly up to 41.8 µM
How it was run: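 1,000 cells/well; 4 h culture; + compound; + HCVcc-Cre (~0.5 moi); 44 h; luciferase substrate, RT 15 min; read 15 sec.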
Potency is the fitted concentration of half-maximal effect; tags give direction and shape of the fitted curve.

| SMILES | Potency |
| --- | --- |
| CC(C)N(Cc1ccccc1)C(=O)C1CCN(c2ncnc3c2nc2n3CCCCC2)CC1 | inconclusive [inhibitor, partial curve] |
| CC1CCCCN1C(=O)COC(=O)c1cc(Cl)c2c(c1)OCO2 (centres undefined) | inconclusive [inhibitor, partial curve] |
| O=C(NC1(C(F)(F)F)C(=O)Nc2c1c(=O)[nH]c(=O)n2Cc1ccccc1)c1ccco1 (centres undefined) | inactive |
| COc1cccc(CN(C(=O)c2cccs2)C2CCS(=O)(=O)C2)c1 (centres undefined) | inactive |
| Cc1c(NC(=O)c2cc3ccccc3o2)c(=O)n(-c2ccccc2)n1C | inactive |
| O=C1OC(=O)c2c(Br)c(Br)c(Br)c(Br)c21 | inconclusive [inhibitor, single point] |
| O=C(N/N=C/c1ccc(O)cc1O)c1ccc(NC(=O)C2CCCCC2)cc1 | inconclusive [inhibitor, single point] |
| CC(C)(C)NC(=O)COc1ccc(-c2ccccc2)cc1 | inactive |
| COc1ccc(NC(=O)CN2CCc3ccccc3C2)c([N+](=O)[O-])c1 | inconclusive [inhibitor, single point] |
| COc1cc(OC)cc(C(=O)N[C@H](C(=O)OCC(=O)Nc2ccc(C)cc2C)C(C)C)c1 | inactive |
| Cc1ccc(S(=O)(=O)N2CCN(C(=O)c3ccco3)CC2)c(C)c1 | inactive |
| CCOC(=O)c1c(C)nc2sc3c(=O)n(-c4ccc(OC)cc4)nnc3c2c1-c1ccc(OC)cc1 | inconclusive [inhibitor, partial curve] |
| CCOCCCn1c(SCC(=O)NCc2ccco2)nc2c(sc3ccccc32)c1=O | inconclusive [inhibitor, single point] |
| Cc1ccc2[nH]c(C)c(/C=N/Nc3nc4ccccc4s3)c2c1 | inconclusive [inhibitor, single point] |
| CC(C)C(c1nnnn1Cc1ccc(F)cc1)N1CCN(C2CCCC2)CC1 (centres undefined) | inactive |
| Cc1cc2c(cc1S(=O)(=O)CCC(=O)NCCc1ccccc1)OCC(=O)N2 | inactive |
| COCC(=O)n1cc(C(=O)OC)c2ccccc21 | inconclusive [inhibitor, single point] |
| O=C(NCC(O)c1ccccc1)c1ccc(Cl)c(S(=O)(=O)N2CCCCC2)c1 (centres undefined) | active: 10 µM |
| CCOC(=O)C(NC(=O)c1ccc(F)cc1)(Nc1nnc(C)s1)C(F)(F)F (centres undefined) | inconclusive [inhibitor, partial curve, poor fit] |
| CCOC(=O)C1CCN(CC(O)COC(CC)c2ccccc2)CC1 (centres undefined) | inactive |
| CCCc1ccc(-c2cc(NC(=O)CSc3nnc(N)s3)n(-c3ccccc3)n2)cc1 | inconclusive [inhibitor, single point] |
| CCOC(=O)c1[nH]c2ccc(C)cc2c1N=CN(CC)CC | inconclusive [inhibitor, single point] |

| SMILES | Potency |
| --- | --- |
| COc1ccc(N=C2C(=Nc3ccc(OC)cc3)N(c3ccccc3)C(=S)N2C(=O)c2ccc(Cl)cc2)cc1 | inconclusive [inhibitor, partial curve, poor fit] |
| COc1cccc(C(=O)N/N=C/c2ccc(Oc3ccc([N+](=O)[O-])cn3)c(OC)c2)c1 | active: 10 µM |
| COc1ccc(C(=O)OCCOc2ccccc2C(C)=O)c(O)c1 | inconclusive [inhibitor, single point] |
| CCOc1ccc2nc(NC(=O)C(CC)Sc3nc(C)cc(=O)[nH]3)sc2c1 (centres undefined) | inconclusive [inhibitor, single point] |
| O=C(COc1ccccc1-c1ccccc1)N/N=C/c1ccccn1 | inconclusive [inhibitor, single point] |
| CN(CCOc1ccc(Cl)cc1)CC(=O)Nc1ccc(OC(F)(F)F)cc1 | inconclusive [inhibitor, single point] |
| CCOc1cc(NC(=O)C2CC2)c(OCC)cc1NC(=O)CCn1nnc2ccccc21 | inconclusive [inhibitor, single point] |
| CC(Sc1n[nH]c(N)n1)C(=O)NC1CCCCC1C (centres undefined) | inactive |
| COc1ccc(-c2sc3ccccc3c2C#CCCO)cc1 | inconclusive [inhibitor, full curve] |
| CC(C)OC(=O)/C(C#N)=C/c1cn(C)c2ccccc12 | inconclusive [inhibitor, partial curve] |
| CCSc1nnc(NC(=O)NC(CC)(C(F)(F)F)C(F)(F)F)s1 | inconclusive [inhibitor, single point] |
| CC(C)Nc1nc(NC(C)C)nc(OCCOC(=O)c2ccccc2)n1 | inconclusive [inhibitor, partial curve] |
| COc1ccc2[nH]c3c(NCCC4=CCCCC4)ncnc3c2c1 | active: 2.82 µM |
| O=C(Nc1ccc2oc(-c3ccncc3)nc2c1)c1ccc2c(c1)OCCO2 | inactive |
| C/C(=N\Nc1nc2ccccc2[nH]1)c1cc2ccccc2o1 | inconclusive [inhibitor, partial curve, poor fit] |
| COc1ccc(C(=O)Nc2cc3c(cc2OC)CCCC3)cc1Br | inconclusive [inhibitor, partial curve, poor fit] |
| CC(C)c1ccc(S(=O)(=O)N2CCN(C(=O)C3CCCCC3)CC2)cc1 | inactive |
| Cc1cc(OCC(O)CN2CCc3ccccc3C2)cc(C(C)C)c1 (centres undefined) | inconclusive [inhibitor, single point] |
| CCN(C(=O)CSc1cc(C)c2ccccc2n1)c1c(N)n(Cc2ccccc2)c(=O)[nH]c1=O | inconclusive [inhibitor, single point] |
| CN(C)S(=O)(=O)c1cccc(NC(=O)c2cc(-c3cccs3)nn2-c2ccccc2)c1 | inconclusive [inhibitor, full curve] |
| COc1ccc(/C=C/C(=O)Nc2ccccc2)cc1S(=O)(=O)N1CCOCC1 | inconclusive [inhibitor, partial curve] |
| CCCCc1cc(=O)oc2c(C)c(OCC(=O)N3C[C@H]4C[C@@H](C3)c3cccc(=O)n3C4)ccc12 | inactive |
